From patent US10752881B2, “Trans-differentiation of differentiation cells” (Helmholtz Zentrum München-Deutsches Forschungszentrum für …, priority 2014, dated 2020)

System: MEFs

## A-Bcl-2: S70A recombinant Bcl-2 with reduced ability to interact with Bax, mimics the un-phosphorylated form
MyoD + A-Bcl-2 vs MyoD/GFP
  onset of spontaneous contraction: started to spontaneously contract consistently earlier than the MyoD/GFP transduced controls
MyoD + A-Bcl-2 vs MyoD/GFP, 5 DPI
  cells with multinuclear myotube morphology: significantly more cells acquired a multinuclear myotube morphology
MyoD/A-Bcl-2 vs MyoD, 5 DPI
  myotube length: increases the proportion of multinuclear cells (C), myotube length (D)
